Read counts are not given, so values of variants with three or more changes are uncertain.
B1: LINE1-mini (parent)
chain: GGCAGAGCUCAACACAGCGUGGCAAAGUGGCUGUGGCUAGACUGCC

Variants of: B1
Experiment: self-cleavage, relative activity (ratio to wild type); higher = more cleavage; in vitro, sequencing; the parent is a self-cleaving ribozyme

Row | Variant | self-cleavage
1 | A4U G19C U28G A41G | 0.02
2 | C8A C15U C18U | 0.25
3 | U9A C10U C18U G19C G29U | 0.07
4 | G5U U9A C42A | 0.04
5 | G5A C13A G19U U38C G44A | 0.02
6 | U34C G35U C37A G40U | 0.18
7 | G5U G7U C15A | 0.1
8 | U9C C10A U34C A41G | 0
9 | A4C A24C A26G G33C G40U | 0.03
10 | C3G G7U G29C C31A U34C | 0.06
11 | G1C A6G A12C A14U C18G G22C U28A | 0.01
12 | A11C G17C U34A | 0.03
13 | G19C U34C C37U | 0.02
14 | G21A A25C C45U | 2.64
15 | A4G C13A C18U G33A C37G | 0.01
16 | U32C G33U G40U | 0.12
17 | A12G G29C G40A | 0.03
18 | A25U G30A G33U G44U | 0.04
19 | G29U G36C C46A | 0.13
20 | G2U G7U G33C | 0.07
21 | A6G A14G G22C A24U G27C | 0.02
22 | C3A C8U A16U C31G C42A | 0.25
23 | C10A A11C G19C U28C U32A G36A | 0.01
24 | C3U G5A C10G | 0.06

Row | Variant | self-cleavage
25 | G7U G17A A26C U34A | 0.02
26 | G5A G29A G35U C37U U38C | 0.04
27 | C8G G22C G30A U38C | 0
28 | G27U C31G C45A | 0.06
29 | G2U G5U C10A G17A C18G | 0
30 | C10A A12G G19C U20C | 0.04
31 | A26C G30C C31G | 0.09
32 | U9C C23A C31G | 0.02
33 | A12U U32C A41G C42G | 0.01
34 | A11G G29U A39G G40A | 0.04
35 | A14G G19C A25G G29U C31A U34G G40U | 0.01
36 | G5C C23U G36A A41U | 0.03
37 | C8U G22A A25C C37G | 0.07
38 | A4C G5U C10G A25G G36C | 0.03
39 | C15A G22C C37A | 0.08
40 | A14G A16U A24G U34C | 0.05
41 | C18U G22U G27U G33C A41G | 0.03
42 | C3G G17C U32C C37U G40U | 0.03
43 | G2U U43A C46G | 0
44 | C3U C10A G21U | 0.01
45 | A16U U20G U34G | 0
46 | C3U C8U C15A G21C G22U A26G A39C | 0.03
47 | U20G A25U U28A C45A | 0.18
48 | C31A U38G C42G | 0.09

Row | Variant | self-cleavage
49 | A12G U28G G29U C45A C46U | 0
50 | C13A G17A C45G | 0.07
51 | C3A U20A G21U G27U C46G | 0.18
52 | A12G A24C G44C | 0.02
53 | U9G C10A C23U G33U | 0.03
54 | G22A G27U C31U G40C | 0.02
55 | A6U C10U A25C | 0.08
56 | G30U G36A C37A U43A | 0.04
57 | G2C G7U U34G | 0.21
58 | C10G G27A G35A C37U | 0.02
59 | G2C C3G G7C A11U G33C G35A C45G | 0.01
60 | G5A A14U C45U | 0.04
61 | A12C U43A C46U | 0.01
62 | C8G U20A C23U G36U | 0.09
63 | C10G G27U U34A U38C | 0.01
64 | A16U G22C U34G G35A | 0.01
65 | G2C C8U C10A G19A | 0.01
66 | G17U G35C C46A | 0.08
67 | G5U U9G G27A | 0.08
68 | G30C U34G A39G G44C | 0.07
69 | C10U A39G G40C C46G | 0.05
70 | U9G A25C A39G | 0.03
71 | G5A A12G U20G G21C G22U A41U | 0.02
72 | G17U A26C C45A C46U | 0.01

Row | Variant | self-cleavage
73 | G2C C8A G22A A26C U28A G33U | 0.05
74 | C3A G5U G7U U9C A11G | 0.01
75 | G2A C3A C8U U9G G27C | 0.91
76 | C3U C31A C46A | 0.04
77 | A16U G17C G19C G35A | 0.03
78 | A16C C23A A41G U43C | 0.01
79 | C15G C23A G33C | 0.21
80 | G1C A11G U20C U32C G36U U38A | 0.01
81 | G27U C37A C46G | 0
82 | G27U U38G C46G | 0.05
83 | G5C G29A G35U | 0.02
84 | G17U G35C C46G | 0.02
85 | G2U A6U G7C G36A C37A | 0.12
86 | C3U U9C A24U G33U | 0.03
87 | C13U G33U C46U | 0.03
88 | A4G G7C C13U A25G | 0.09
89 | U9G C10G G36A C46A | 0
90 | G21C G33U C46U | 0.01
91 | C23A C42A G44A | 0.97
92 | G2A A11C A26C U28A G29C C37A U43A | 0
93 | G1C G22C A25U | 0.09
94 | C31G G40U C46G | 0.07
95 | C10A A14U A41C | 0.02
96 | A16C A24U U32G U43A | 0.02

Row | Variant | self-cleavage
97 | A12U A14G G17C U43A | 0.1
98 | C10A G17A C23U A25U | 0.01
99 | G33U G35C C45U | 0.06
100 | U9C A25U G44C | 0.02
101 | U9C C10G U20G G21U G27A | 0.02
102 | A11C G35C C37G | 0.03
103 | G17A A24C U34C | 0.05
104 | C10A A11G G35U | 0.01
105 | C10U C23A A39U | 0.17
106 | C10U G27U U43G G44A C46U | 0.01
107 | G30A U34C A39U C46A | 0.19
108 | C8U G19A G29C | 0.65
109 | C3U G7U A11C A16U G17C C18G A41C | 0.02
110 | A4C A16U G21C A25C G36C U43A | 0.04
111 | A14C C23A C37A | 0.05
112 | C8A A11G C15A G19A G40A C45G | 0.02
113 | A6C G7C G19A | 0.09
114 | A12G A16G G19C G29U | 0.03
115 | C13A U20A G27C C31A U34G | 0.03
116 | U20A A26G G27A U32C A41U C42A | 0.01
117 | G2U C13U G30U A39U C45U | 0.02
118 | G5U U32C G35A G36A | 0.03
119 | G7C G30C G44U C46U | 0.01
120 | G5U U20G G22U C46G | 0.01

Row | Variant | self-cleavage
121 | A4G C37G G44C | 0.01
122 | A6U G19U A24U | 0.6
123 | C3A G5U U9C A16U | 0.06
124 | G2C C8U G21A A24G C46G | 0.16
125 | C8G U43A C45G C46A | 0
126 | A14C C15A G17C | 0.04
127 | G7C C8A G22A G44C | 0.14
128 | A11U A16U U34G G36A | 0.01
129 | G17U A24G C42U | 0.02
130 | G1C C8A C23U C45U | 0.01
131 | G29C U32A G35C A39G A41U | 0.06
132 | G2U A12C G17A G21C A26G G35U G40U C42G | 0
133 | G5C C8A C13U U20C G33C G35U C37G U38A | 0.19
134 | C3U G22C G27A G29C U32C | 0.11
135 | G2U A6U A12G U20A | 0.01
136 | C8U C15G C42G G44C | 0.11
137 | U9G C10A A25G G27C C42G G44A | 0
138 | G2U G30A C31A C45G | 0.08
139 | G7U C13U C31G U32A G33A U38C | 0.17
140 | C3U G7U G17C G33U C42A U43C | 0.11
141 | G1C U28A A41U | 0.08
142 | C10A A16U A26U C31U | 0.01
143 | A6G G27C G33U | 0.1
144 | C8G G27C C45A | 0

Row | Variant | self-cleavage
145 | U9C A14U C15G U28G G36A | 0.02
146 | A4U A6C G29C U32G U38C U43C | 0.01
147 | C10G U20C U28G G30A U34C G36A | 0.02
148 | G21A G27C G33A | 0.09
149 | G7A G19A U20C A39G | 0.15
150 | A6C G21C C46A | 0.84
151 | A11G G27C G29U | 0.01
152 | C13A C15U A24U | 0.08
153 | G1C G2U C15A G19C A39C | 0.03
154 | A6G C10A G30C | 0.01
155 | C3A A4C A14U U20G G27C G29C G30C | 0
156 | C13G C15G G29A | 0.06
157 | A14U G21C G27U | 0.76
158 | A16C G30U C46G | 0.03
159 | G5A A26U G40C | 0.05
160 | C13G G17U G22A G30C | 0.01
161 | G2A A14U A16U G36A | 0.15
162 | A14C A16G A24U G27U | 0.18
163 | C15G A16C C23U | 0.03
164 | A4G C13U G36U | 1.86
165 | G1C C15A G17C C31G C42G | 0
166 | C10A C13G G17C G40C G44U | 0.02
167 | C3A G7A A12C C13A A39G | 1.08
